Numbering of substitutions follows the chain as printed. This is one part of the list.
T1: UNK ZnF1-3 (human, UniProt Q9C0B0 31-174)
T1 sequence: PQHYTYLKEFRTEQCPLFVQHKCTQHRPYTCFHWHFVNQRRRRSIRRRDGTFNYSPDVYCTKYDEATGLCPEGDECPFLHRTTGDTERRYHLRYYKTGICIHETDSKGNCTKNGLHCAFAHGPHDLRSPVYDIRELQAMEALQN

B1: chr5:145543945:145543946:-_ENSG00000133706_ENST00000545646|hu_hu|hu_hu_hu_mus_True|78_108 (ssRNA)
RNA: GGGAGUUCUACAGUCCGACGAUCCUGAAUAGCCAGUGGUGGGAAAUAAUCAAGCCAAUGUUCUGCUUCAGAAAACUUCACUAUGUCGUCAUCAGAGAGCCCAAGGGAUUUCAUAAUGUCCCACUGGUACUUAGAAGAUCCUGCCAACAGAGGAUUGAGCAUCA
B2: chr8:95500983:95500984:-_ENSG00000164944_ENST00000437199|hu_hu|hu_hu_hu_mus_True|1_58 (ssRNA)
RNA: GGGAGUUCUACAGUCCGACGAUCAGAACACAUCUAUCGAGUAAAGGACCGUACAUGACGGCCUCUACCACUGCCUCCCACUAACAACUUUCCUCUCGAGCCUCCACUGCCGCUAUUUGUACUAGCCCAGGACGGUCCCAAGUCCAACAGAGGAUUGAGCAUCA
B3: chr12:86311719:86311720:-_ENSMUSG00000042350_ENSMUST00000043169|mus_mus|FALSE|FALSE (ssRNA)
RNA: GGGAGUUCUACAGUCCGACGAUCGGCUGCGGCGUGAAGAAAAACGUUACCCGAACGGGGGCUGCAACGUGGCCAAGUCCUAGUUCUGGGGUCCGAGGAAGCAGCGGCCUCAUCCAGCACAAAUCCUACCCUCCACCCGCCCCCCAACAGAGGAUUGAGCAUCA
B4: chr5:52541547:52541548:-_ENSMUSG00000029169_ENSMUST00000031061|mus_hu|FALSE|FALSE (ssRNA)
RNA: GGGAGUUCUACAGUCCGACGAUCUACUGAGACAGAAGAUUGUGUCUACAUAAGCACAAGUUGUAACAUUUCACAACUUCUAAAAGGAAUGUCAACAAUUACAACGAUCAUGCAUACCAUGGUCGAUAAUCACAUUUUAGAAGCCAACAGAGGAUUGAGCAUCA
B5: 63393171_63394198_5434_CDS_ENSMUSG00000030451_ENSMUST00000076226|mouse|control|control (ssRNA)
RNA: GGGAGUUCUACAGUCCGACGAUCUCCCGCCGGGUUCUCAUUGGUAAUGGUUUGUAGGGGAACAGGCUGGAUACCCAGCUCUUUAAACCUGGCACUUGCAUCCAUCAGAACAGAUCGAAUAUUCUGAACUGCCCAAGCAUACAGCAACAGAGGAUUGAGCAUCA
B6: chr13:81889239:81889240:+_ENSMUSG00000051098_ENSMUST00000057598|mus_hu|FALSE|FALSE (ssRNA)
RNA: GGGAGUUCUACAGUCCGACGAUCCAUGGCAAAAGUAGAAACUUUGUGACAUAUCCCAGCUUUUGAAAUAUAGUUAGAAGCCAAUCGAAAAAGCCUUUCAGCACCAAAGGUAUUGAAGUGCCCAGGAAGCACCUUCUCUACCAGCAACAGAGGAUUGAGCAUCA
B7: chr3:49547525:49547526:-_ENSMUSG00000037892_ENSMUST00000035931|mus_mus|FALSE|FALSE (ssRNA)
RNA: GGGAGUUCUACAGUCCGACGAUCGUUCAUAUGCUAAAAAUACAAGCAAAACUGUGAUAGCAUGCACAAGAGACAAAAGCUAAAGGUGAAUAAUUAUAGCCAAAAAAAGAGAGACAAUGCAGUCGAUACAAAUGUUCAAGUAUGCAACAGAGGAUUGAGCAUCA
B8: chr1:60041781:60041782:+_ENSMUSG00000041040_ENSMUST00000036540|mus_hu|mus_mus_mus_hu_False|58_68 (ssRNA)
RNA: GGGAGUUCUACAGUCCGACGAUCAAGUUUACAAUAGUAAAGUAAAUGCAGUAGUGGCAAAUUUUCUUUACUUUAGUUUCCUAAAAGAAAAUCUUUAUAACCCAGUCCUAGUCUUGGACAUAGUGAAAGCUAUAAAUUCUGACUCAACAGAGGAUUGAGCAUCA
B9: chr11:13408652:13408653:+_ENSG00000133794_ENST00000403290|hu_mus|motif|central (ssRNA)
RNA: GGGAGUUCUACAGUCCGACGAUCACUUCUUUGUAGUGUAAAAACACCAUACAUCUGAAAUGACCAUUUUGCAUAUAAAAGCGGCCAAUGAUGCUUCUGUGCACAAUGAUUAAAAAAUUCAACACAAACAAAAUCCAAAAUAUACAACAGAGGAUUGAGCAUCA
B10: chr5:77764768:77764769:+_ENSMUSG00000029250_ENSMUST00000031167|mus_hu|FALSE|FALSE (ssRNA)
RNA: GGGAGUUCUACAGUCCGACGAUCGACACCAAGGAUCAUUGAGGGAUGAAUCUCACAGUGUGUAUAUGUGGAACAAUAAGCUACUUCUUUCUCCUGUAAAUCAUCUGGAGUCAUUGCAAGCAUCACUGUUUCUUCUUCCAGGGUCAACAGAGGAUUGAGCAUCA
B11: 54240379_54240499_3742_CDS_ENSMUSG00000061603_ENSMUST00000095737|mouse|control|control (ssRNA)
RNA: GGGAGUUCUACAGUCCGACGAUCUUGAUCAAGGUCGUUGGAUUCUUCAUGCACACUAAUGAGUUUGUUACUUAUGUCUGUCUCAUCCCAUUCCAGGGCAUCCUCACUCAUUCCAUUCAGGUCCAUCAAGCCAGGGUCAAUCACCAACAGAGGAUUGAGCAUCA
B12: chr7:141445308:141445309:+_ENSG00000106028_ENST00000265304|hu_hu|hu_hu_hu_mus_False|28_48 (ssRNA)
RNA: GGGAGUUCUACAGUCCGACGAUCUAUGAUUGUUGUUGCUUGCCGCCUCACAUUGUUUUUAUCCAUGUACUCGCCAUAGUCCACUUUCCCUUCCAAAAAUAUACGAGACCCCUUUUUCACAUACUGAUAUGCCACAUCUCUGAGCAACAGAGGAUUGAGCAUCA
B13: chr11:18503389:18503390:-_ENSG00000074319_ENST00000251968|hu_hu|FALSE|FALSE (ssRNA)
RNA: GGGAGUUCUACAGUCCGACGAUCAUUUUCCAUUUUUUCCAGAGCAGAACUGAGUUCUUCAUCCUUCUUUUUCAAAAGUUCUAUGUUUUUAUCAACCUCGGCUACUUCUUGAUCUAAACGGGUAACCAUCUCUUCCAGUUUCUGCAACAGAGGAUUGAGCAUCA
B14: chr11:68312385:68312386:+_ENSG00000110075_ENST00000393800|hu_hu|motif|central (ssRNA)
RNA: GGGAGUUCUACAGUCCGACGAUCCUUGCUGAAGAAACUGGCAAGUAGUGGAUUCAAAGGGGAAUCGUUUAGGAGGAAGCGGUAUAAUUUCAUUAGCAAGGAUUCAUCUUCUCCCAGUCUAUCAUUCAUCUGGGAGACAUCAGACAACAGAGGAUUGAGCAUCA
B15: chr18:35731883:35731884:+_ENSMUSG00000037236_ENSMUST00000166793|perfect_dup|motif|central (ssRNA)
RNA: GGGAGUUCUACAGUCCGACGAUCAAUGUUAAAUAUAGACUGCAAAUUAUGGGAAGAAGUACUAGCAGAAGACAGUGCACGGUGAGCUCCUUGUUGAUUCAAUGAAGAACUCAUUCCAAGAUUCAUUAAACUAGCAAGGCGUGCCAACAGAGGAUUGAGCAUCA
B16: 220363083_220363729_1797_CDS_ENSG00000118873_ENST00000358951|human|control|control (ssRNA)
RNA: GGGAGUUCUACAGUCCGACGAUCUUCCUUUAUUUCUGUUUCAACCAAAUCAAGAUUGGGAGAUUUUGUUUUCAGUAAGGCUGCUAGUUUCUUCACUAGGUGCAUAUCCUUGGCUCGUUCACUCUUCUUAUCACUCAGUGCUAACAACAGAGGAUUGAGCAUCA
B17: chr16:5026692:5026693:-_ENSMUSG00000022536_ENSMUST00000115844|mus_hu|motif|central (ssRNA)
RNA: GGGAGUUCUACAGUCCGACGAUCACCCAUUUUUAGCAAGUUGGAGACGAUUCCACUUCCCAUGAGACCAAGGCCCAAAAAUCCGGUCUUUUUGUCUGUGGGUGUGAUGCUGCCAUUCACGGCUGUGCUGUCAGCUGCCUGGAUCAACAGAGGAUUGAGCAUCA
B18: chr3:150459880:150459881:-_ENSG00000181788_ENST00000312960|hu_hu|motif|central (ssRNA)
RNA: GGGAGUUCUACAGUCCGACGAUCUUGUGAAGACAUAUGGAAUAAAACAUCUAUAAAAACCUUUAUUAAACAUAGAGCACGGUGCCCAAAUAAUUUUGAAGGUUUACGAAAGUCACAUCAUGGACAACAUGUAGAAAUAGUAACCAACAGAGGAUUGAGCAUCA
B19: chr3:176767854:176767855:-_ENSG00000177565_ENST00000430069|hu_hu|hu_hu_hu_mus_False|48_58 (ssRNA)
RNA: GGGAGUUCUACAGUCCGACGAUCGACAUCCUUGUUACUGGGCACGUCCUGCCCUCCUUCCCGUAUGCAGUGUCUAAGUACUAACUGUGUAGAGCCACUCGUGCUGUUCUCACUGAGGUUCCAGAUUCUUGCCGUGGAGUCUCCCAACAGAGGAUUGAGCAUCA
B20: chr3:176767854:176767855:-_ENSG00000177565_ENST00000430069|hu_hu|hu_hu_hu_mus_False|18_88 (ssRNA)
RNA: B19 RNA with C48U, U78C, U81G, A83G, U87C, A92G, G117A, G123U
B21: chr2:73747280:73747281:-_ENSMUSG00000018770_ENSMUST00000018914|mus_mus|FALSE|FALSE (ssRNA)
RNA: GGGAGUUCUACAGUCCGACGAUCCUUCAGUGAAGGGUUUCUGGCAUAACCAAUGAUAAGACUGCCAAAGACUGUUCCAAUACCAGCACCAGAACCAGCAACUCCUACUGUUGCAGCACCUGCACCAAUGAAUUUGGCAGCAGUCAACAGAGGAUUGAGCAUCA
B22: chr11:68836070:68836071:+_ENSMUSG00000020898_ENSMUST00000116359|mus_mus|motif|central (ssRNA)
RNA: GGGAGUUCUACAGUCCGACGAUCCCUCACAUACAGGCUUCCACUCCUACAUUCUUGUUCCGAAUCUCCCAAUAGGUCGGCGGGUGUCCCUAAAAGUAUCAGCUGCUCCCGGGGCAGGACGCCGUCCCCCGGCCGGCCUCCGCGCAACAGAGGAUUGAGCAUCA

Each binder was assayed against T1, UNK ZnF1-3 (assay: nsRBNS (natural sequence RNA bind-n-seq); RBNS binding buffer (assumed for nsRBNS): 25 mM Tris pH 7.5, 150 mM KCl, 3 mM MgCl2, 0.01% Triton X-100, 500 ug/ml BSA, 20 U/ml SUPERase-In, 4 C; UNK is unkempt and MSI1 is Musashi-1; names of the RNAs are library labels; protein concentration not given here; high values mean tight binding).

Row | Binder | binding signal [enrichment R]
1 | B1 | 1.22
2 | B2 | 1.13
3 | B3 | 1.28
4 | B4 | 0.996
5 | B5 | 1.29
6 | B6 | 1.21
7 | B7 | 1.64
8 | B8 | 0.609
9 | B9 | 0.754
10 | B10 | 1.2
11 | B11 | 0.776
12 | B12 | 0.835
13 | B13 | 0.477
14 | B14 | 1.13
15 | B15 | 0.929
16 | B16 | 0.385
17 | B17 | 0.693
18 | B18 | 1.11
19 | B19 | 0.583
20 | B20 | 0.353
21 | B21 | 0.899
22 | B22 | 0.696

Source: PMC12136788
